This is an account of results in PMC2920317, “CHL1 Is a Selective Organizer of the Presynaptic Machinery Chaperoning the SNARE Complex” (PLoS ONE, 2010).

Chains of the proteins cited; added tags and fusions are not shown. Residues count along the entry.
UniProt P70232, residues 26-1209: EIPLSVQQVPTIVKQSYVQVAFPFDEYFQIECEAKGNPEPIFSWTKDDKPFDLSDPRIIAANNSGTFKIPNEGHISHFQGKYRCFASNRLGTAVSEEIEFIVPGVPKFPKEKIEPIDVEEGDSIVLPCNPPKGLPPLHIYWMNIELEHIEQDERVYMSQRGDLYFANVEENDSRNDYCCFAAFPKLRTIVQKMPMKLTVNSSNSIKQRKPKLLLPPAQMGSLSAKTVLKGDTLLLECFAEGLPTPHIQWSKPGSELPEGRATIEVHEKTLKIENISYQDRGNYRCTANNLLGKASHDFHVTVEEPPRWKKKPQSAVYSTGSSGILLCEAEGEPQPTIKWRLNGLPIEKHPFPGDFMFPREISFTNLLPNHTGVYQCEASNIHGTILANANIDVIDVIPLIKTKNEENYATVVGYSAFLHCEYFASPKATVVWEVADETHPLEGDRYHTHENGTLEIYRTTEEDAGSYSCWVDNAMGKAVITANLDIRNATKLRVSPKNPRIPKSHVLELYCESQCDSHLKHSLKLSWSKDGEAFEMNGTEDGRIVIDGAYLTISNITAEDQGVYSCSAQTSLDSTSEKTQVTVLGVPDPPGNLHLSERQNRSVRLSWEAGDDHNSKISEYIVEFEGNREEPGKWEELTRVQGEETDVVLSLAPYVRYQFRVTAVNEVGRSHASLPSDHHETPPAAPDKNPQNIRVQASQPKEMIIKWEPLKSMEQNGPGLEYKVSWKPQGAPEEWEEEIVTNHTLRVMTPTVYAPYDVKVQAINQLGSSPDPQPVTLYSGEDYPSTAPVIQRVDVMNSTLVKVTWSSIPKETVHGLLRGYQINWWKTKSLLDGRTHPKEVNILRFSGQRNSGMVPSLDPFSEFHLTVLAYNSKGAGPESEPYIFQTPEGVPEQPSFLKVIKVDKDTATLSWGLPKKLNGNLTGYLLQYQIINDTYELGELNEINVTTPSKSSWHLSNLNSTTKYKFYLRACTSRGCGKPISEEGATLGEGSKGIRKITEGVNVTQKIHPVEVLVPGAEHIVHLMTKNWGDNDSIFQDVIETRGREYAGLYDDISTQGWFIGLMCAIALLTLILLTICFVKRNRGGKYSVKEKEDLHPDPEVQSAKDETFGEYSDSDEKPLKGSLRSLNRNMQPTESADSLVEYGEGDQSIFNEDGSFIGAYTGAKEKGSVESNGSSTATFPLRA
UniProt P63017: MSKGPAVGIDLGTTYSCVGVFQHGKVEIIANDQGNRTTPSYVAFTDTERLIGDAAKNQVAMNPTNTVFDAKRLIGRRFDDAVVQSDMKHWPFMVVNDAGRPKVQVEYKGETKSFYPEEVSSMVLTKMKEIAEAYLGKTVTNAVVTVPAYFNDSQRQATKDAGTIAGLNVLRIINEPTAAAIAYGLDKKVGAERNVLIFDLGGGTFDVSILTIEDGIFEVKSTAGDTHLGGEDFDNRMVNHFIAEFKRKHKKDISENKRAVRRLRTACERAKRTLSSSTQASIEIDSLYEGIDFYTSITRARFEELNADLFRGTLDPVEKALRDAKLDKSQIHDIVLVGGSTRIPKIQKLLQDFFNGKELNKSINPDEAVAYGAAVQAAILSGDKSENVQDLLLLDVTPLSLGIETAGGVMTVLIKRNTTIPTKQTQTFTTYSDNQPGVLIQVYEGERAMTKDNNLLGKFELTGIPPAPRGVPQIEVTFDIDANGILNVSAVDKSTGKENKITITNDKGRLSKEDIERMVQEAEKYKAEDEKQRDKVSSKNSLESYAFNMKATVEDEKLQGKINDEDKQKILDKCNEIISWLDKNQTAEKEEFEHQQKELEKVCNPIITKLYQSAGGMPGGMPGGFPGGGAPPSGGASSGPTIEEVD
UniProt P60879: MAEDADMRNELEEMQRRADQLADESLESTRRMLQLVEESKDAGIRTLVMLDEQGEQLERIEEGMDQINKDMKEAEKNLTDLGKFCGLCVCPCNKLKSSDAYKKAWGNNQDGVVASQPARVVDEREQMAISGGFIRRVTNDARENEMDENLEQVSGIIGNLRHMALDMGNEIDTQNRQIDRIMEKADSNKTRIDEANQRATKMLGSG
UniProt P63044: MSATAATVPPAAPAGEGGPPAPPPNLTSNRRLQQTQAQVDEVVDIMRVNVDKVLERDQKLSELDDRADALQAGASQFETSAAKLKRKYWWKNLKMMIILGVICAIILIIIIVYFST
UniProt Q62277: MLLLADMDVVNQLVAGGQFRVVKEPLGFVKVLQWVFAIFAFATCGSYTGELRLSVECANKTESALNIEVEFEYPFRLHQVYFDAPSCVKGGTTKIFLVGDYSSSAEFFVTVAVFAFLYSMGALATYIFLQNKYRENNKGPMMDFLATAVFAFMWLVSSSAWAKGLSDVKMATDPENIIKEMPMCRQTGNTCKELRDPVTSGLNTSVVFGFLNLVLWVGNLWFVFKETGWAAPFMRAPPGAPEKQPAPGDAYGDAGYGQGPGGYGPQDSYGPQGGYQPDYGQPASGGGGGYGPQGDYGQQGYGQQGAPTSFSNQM

For test [1], the target named is Close homologue of L1 (CHL1) (mouse (endogenous in brain)) (UniProt P70232). The test can be described thus: condition: only mock-stimulated synaptosomes (4 mM K+), without stimulation by 47 mM K+; co-IP; CHL1 immunoprecipitated from mock-stimulated (4 mM K+) mouse brain synaptosomes; Western blot, also at high exposure. (In general: A western blot detects proteins with antibodies after separation by electrophoresis.)

In test [2] the target is syntaxin1B (mouse (endogenous in brain)) (UniProt P61264). The experiment in a line: co-IP; syntaxin1B immunoprecipitated from CHL1+/+ and CHL1-/- mouse synaptosomes treated with 4 mM or 90 mM K+ (90 s); Western blot.
The target of test [3] is Close homologue of L1 (CHL1) (mouse (endogenous in brain)) (UniProt P70232). The experiment in a line: co-IP; CHL1 immunoprecipitated from mouse brain synaptosomes, mock-stimulated (4 mM K+) or stimulated one or two times with 47 mM K+ for 90 s with or without 5 min recovery in 4 mM K+; Western blot.
Test [4] addresses syntaxin1B (mouse (endogenous in brain)) (UniProt P61264). The experiment in a line: pull-down; syntaxin1B immunoprecipitated (immunopurified) from synaptosomes, on beads; native recombinant SNAP25 and VAMP2 added together; Western blot; both purified.
Test [5] addresses Close homologue of L1 (CHL1) (mouse (endogenous in brain)) (UniProt P70232). The test can be described thus: co-IP; CHL1 immunoprecipitated from adult mouse brain lysates (50 mM Tris-HCl pH 7.5, 150 mM NaCl, 1% Nonidet P-40, 1 mM EDTA); protein A/G-agarose; Western blot; mock IP with non-specific Ig as control.
The target is the same in test [6]. The test is described as above. The source holds these as a separate data set.
Test [7] has the same target. The test can be described thus: native gel or EMSA; synaptic vesicles and synaptic plasma membranes of mouse brain lysed in 1% Triton X-100 (removed with Bio-Beads), 2-mercaptoethanol added; 6% PAGE under non-denaturing conditions; Western blot; overlapping bands at or above the summed molecular weight taken as presumed complex.
The target of test [8] is 70 kDa heat shock cognate protein (Hsc70) (mouse (endogenous in brain)) (UniProt P63017). Described as above.

No constants are given. Whether binding was seen depends on the method and setting. For some assays here: Binding seen in cells or lysates may run through a third protein. Some entries that bind do so weakly or less than the wild type.

For the molecule SNAP25 (from UniProt P60879 1-206), the binding entry was “no binding” in test [1], “binds” in test [2] and “binds” in test [3].
Take “recombinant SNAP25 (from UniProt P60879 1-206)”: the binding result in test [4] was “binds”.
For the molecule VAMP2 (from UniProt P63044 1-116), the binding entry in test [2] and in test [3] was “binds” each time.
As to “recombinant VAMP2 (from UniProt P63044 1-116)”, the binding entry in test [4] was “binds”.
Take “synaptophysin (from UniProt Q62277 1-314)”: the binding result in test [5] is recorded as “no binding”.

B1: small glutamine-rich tetratricopeptide repeat-containing protein, brain specific isoform (βSGT) (protein, UniProt Q8VD33 1-304)
chain: MSSVKPLVYAVIRFLREQSQMDAYTSDEQESLEVAIQCLETVFKISPEDTHLAVSQPLTEMFTNSVCKNDIRPLSNSVPEDVGKADQLKDEGNNHMKEENYAAAVDCYTQAIELDPNNAVYYCNRAAAQSKLSHYTDAIKDCEKAIAIDSKYSKAYGRMGLALTAMNKFEEAVTSYQKALDLDPENDSYKSNLKIAEQKLREVSSPTGTGLSFDMASLINNPAFITMAASLMQNPQVQQLMSGMMTNAIGGPAAGVGGLTDLSSLIQAGQQFAQQIQQQNPELIEQLRNHIRSRSFSSSADEHS
Regarding B1, in test [6], the binding result was “no binding”.

B2: cysteine string protein (CSP), αCSP isoform (protein, UniProt P60904 1-198)
chain: MADQRQRSLSTSGESLYHVLGLDKNATSDDIKKSYRKLALKYHPDKNPDNPEAADKFKEINNAHAILTDATKRNIYDKYGSLGLYVAEQFGEENVNTYFVLSSWWAKALFVVCGLLTCCYCCCCLCCCFNCCCGKCKPKAPEGEETEFYVSPEDLEAQLQSDEREATDTPIVIQPASATETTQLTADSHPSYHTDGFN
With B2, the binding result in test [7] is “binds”.

B3: small glutamine-rich tetratricopeptide repeat-containing protein, ubiquitous isoform (αSGT) (natural protein, mouse (endogenous in brain), UniProt Q8BJU0 1-315, looked up)
chain: MDNRKRLAYAIIQFLHGQLRHGGLSCDAQESLEVAIQCLETAFGVTLEDSDLALPQTLPEIFEAATSSKQEMPQDPRAPDRTPPSEEDSAEAERLKTEGNEQMKLENFEAAVHLYGKAIELNPANAVYFCNRAAAYSKLGNYVGAVQDCERAIGIDPGYSKAYGRMGLALSSLNKHAEAVAYYKKALELDPDNDTYKSNLKIAELKLREAPSPTGGVGSLDIAGLLNNPHFITMASSLMNSPQLQQLMSGMISGGHNPLGTPGSSPQQSDLASLIQAGQQFAQQMQQQNPEFVEQIRSQVVRSRTPSASHEEQQE
notes: αSGT, endogenous in adult mouse brain; also called alphaSGT; source: endogenous, mouse brain lysate; synaptic vesicles and synaptic plasma membranes
B3: the binding entry in test [8] and in test [7] was “binds” each time.

B4: syntaxin1B (natural protein, mouse (endogenous in brain), UniProt P61264 1-288, looked up)
chain: MKDRTQELRSAKDSDDEEEVVHVDRDHFMDEFFEQVEEIRGCIEKLSEDVEQVKKQHSAILAAPNPDEKTKQELEDLTADIKKTANKVRSKLKAIEQSIEQEEGLNRSSADLRIRKTQHSTLSRKFVEVMTEYNATQSKYRDRCKDRIQRQLEITGRTTTNEELEDMLESGKLAIFTDDIKMDSQMTKQALNEIETRHNEIIKLETSIRELHDMFVDMAMLVESQGEMIDRIEYNVEHSVDYVERAVSDTKKAVKYQSKARRKKIMIIICCVVLGVVLASSIGGTLGL
notes: syntaxin1B, SNARE complex protein, endogenous in adult mouse brain; also called synatxin1B; source: endogenous, mouse brain lysate and synaptosomes; immunoprecipitated from synaptosomes and held on beads
B4: the results for the binding result in test [1] and in test [3] were “no binding” and “binds”, respectively.
